Test results taken from a collection of fitness landscapes (doi:10.1126/science.1257360).
The list shows a part of the results.

B1: PhoQ; a variant is named by its letters at X, in order, P23837 (parent)
chain: MKKLLRLFFPLSLRVRFLLATAAVVLVLSLAYGMVALIGYSVSFDKTTFRLLRGESNLFYTLAKWENNKLHVELPENIDKQSPTMTLIYDENGQLLWAQRDVPWLMKMIQPDWLKSNGFHEIEADVNDTSLLLSGDHSIQQQLQEVREDDDDAEMTHSVAVNVYPATSRMPKLTIVVVDTIPVELKSSYMVWSWFIYVLSANLLLVIPLLWVAAWWSLRPIEALAKEVRELEEHNRELLNPATTRELTSLVRNLNRLLKSERERYDKYRTTLTDLTHSLKTPLXXLQXXLRSLRSEKMSVSDAEPVMLEQISRISQQIGYYLHRASMRGGTLLSRELHPVAPLLDNLTSALNKVYQRKGVNISLDISPEISFVGEQNDFVEVMGNVLDNACKYCLEFVEISARQTDEHLYIVVEDDGPGIPLSKREVIFDRGQRVDTLRPGQGVGLAVAREITEQYEGKIVAGESMLGGARMEVIFGRQHSAPKDE

Variants of: B1
Assay: enrichment ratio after two sorts for PhoP signalling (ratio (wild type AVST 3.29)); higher = more functional
Settings: with PhoP (E. coli)

Variant	enrichment ratio
GWPT	≤ 0.25
GPIP	≤ 0.25
VKCF	≤ 0.25
MRPY	≤ 0.25
HQPQ	≤ 0.25
YFAG	≤ 0.25
IFAA	≤ 0.25
NGLD	≤ 0.25
VKRW	≤ 0.25
YWTC	≤ 0.25
RYTR	≤ 0.25
TENE	8.3
MMIC	≤ 0.25
EAIQ	≤ 0.25
ATNS	≤ 0.25
WIKL	≤ 0.25
FWSR	≤ 0.25
LPGR	≤ 0.25
DAIL	≤ 0.25
PWLE	≤ 0.25
SLHN	≤ 0.25
TKST	15.4
GLKI	≤ 0.25
QSEG	≤ 0.25

Variant	enrichment ratio
WGAS	≤ 0.25
VKCE	≤ 0.25
QKSW	≤ 0.25
TMHP	≤ 0.25
TKLE	12.7
IMSA	≤ 0.25
HHMN	≤ 0.25
WITC	≤ 0.25
NAGF	≤ 0.25
DDFA	≤ 0.25
ECLV	≤ 0.25
KVGV	≤ 0.25
QMVW	≤ 0.25
FFMM	≤ 0.25
MYLV	0.307
HRRW	≤ 0.25
RQCN	≤ 0.25
VNFI	≤ 0.25
TIRN	≤ 0.25
MYQH	≤ 0.25
LHDC	≤ 0.25
AGPC	≤ 0.25
NMNA	≤ 0.25
KMNK	≤ 0.25

Variant	enrichment ratio
SEYS	2.4
FYNT	≤ 0.25
FEFH	≤ 0.25
DKRC	≤ 0.25
ADHV	≤ 0.25
DYRD	≤ 0.25
VGCV	2.53
FHNH	≤ 0.25
DYPT	≤ 0.25
FMTH	≤ 0.25
QRCN	≤ 0.25
WQGH	≤ 0.25
ESLD	≤ 0.25
LTNW	≤ 0.25
NSWE	≤ 0.25
ATPP	≤ 0.25
QTAN	≤ 0.25
RHDV	≤ 0.25
WTFC	≤ 0.25
PPHQ	≤ 0.25
IGKH	≤ 0.25
MIVD	≤ 0.25
LKTC	≤ 0.25
WHYH	≤ 0.25

Variant	enrichment ratio
IYDT	≤ 0.25
GHEC	≤ 0.25
ATFF	≤ 0.25
DFSG	≤ 0.25
LLCR	≤ 0.25
KQIF	≤ 0.25
FFQP	≤ 0.25
YSQQ	≤ 0.25
PNTL	≤ 0.25
FHQY	≤ 0.25
SHQS	≤ 0.25
MEMP	≤ 0.25
QTNQ	≤ 0.25
MREY	≤ 0.25
FHFF	≤ 0.25
PCGR	≤ 0.25
TELQ	10
TWIP	≤ 0.25
TSDD	≤ 0.25
KITY	≤ 0.25
RRPG	≤ 0.25
TVWM	≤ 0.25
PMNK	≤ 0.25
SDEF	≤ 0.25

Variant	enrichment ratio
KYRM	≤ 0.25
VGNP	≤ 0.25
KYVA	≤ 0.25
KYAV	≤ 0.25
MCGA	5.94
FEMI	13
HHHI	≤ 0.25
IRCA	≤ 0.25
EHTL	≤ 0.25
SESG	28.9
AVCA	6.97
LITV	≤ 0.25
WAFP	≤ 0.25
AGDA	≤ 0.25
PWPA	≤ 0.25
FMER	≤ 0.25
WVWS	≤ 0.25
FCMQ	1.02
KFVP	≤ 0.25
LCTH	≤ 0.25
QICS	≤ 0.25
GMTC	≤ 0.25
MDMN	≤ 0.25
SEEP	≤ 0.25

Variant	enrichment ratio
KYKV	≤ 0.25
AVGP	≤ 0.25
QNVD	≤ 0.25
YKCV	≤ 0.25
EPAY	≤ 0.25
FTCM	7.68
RAHD	≤ 0.25
NRWD	≤ 0.25
APPL	≤ 0.25
ARLI	2.97
EYYN	≤ 0.25
FHMC	≤ 0.25
CSPS	≤ 0.25
LWYN	≤ 0.25
YMVY	≤ 0.25
VLKW	≤ 0.25
LQWW	≤ 0.25
DIPN	≤ 0.25
FVKW	≤ 0.25
WEPK	≤ 0.25
RYLP	≤ 0.25
INTM	≤ 0.25
LYNM	≤ 0.25
IWVT	≤ 0.25

Variant	enrichment ratio
EKLY	≤ 0.25
PSCM	≤ 0.25
RMHI	≤ 0.25
YEIN	≤ 0.25
GGEI	≤ 0.25
AIWM	≤ 0.25
QKFQ	4.36
PKKF	≤ 0.25
WSAN	≤ 0.25
DMKF	≤ 0.25
FSSI	0.692
TECN	60.8
TARW	≤ 0.25
FYKY	≤ 0.25
LITW	≤ 0.25
KDNQ	≤ 0.25
YYMD	≤ 0.25
AEQC	16
FYEL	≤ 0.25
QCIT	≤ 0.25
VKYV	≤ 0.25
PHCH	≤ 0.25
GECM	15.3
AGPN	≤ 0.25

Variant	enrichment ratio
FWIH	≤ 0.25
YSAY	≤ 0.25
VDEE	≤ 0.25
QVTG	≤ 0.25
SIQM	1.35
MYFH	≤ 0.25
PMVF	≤ 0.25
RRLC	≤ 0.25
ITHL	≤ 0.25
PQSF	≤ 0.25
DLAK	≤ 0.25
GKHH	≤ 0.25
ANGN	8.08
HIPH	≤ 0.25
LDGH	≤ 0.25
QEGE	≤ 0.25
KTVA	≤ 0.25
MQTC	≤ 0.25
SLSH	8.37
PTWW	≤ 0.25
KQDD	≤ 0.25
EYPI	≤ 0.25
FIDA	≤ 0.25
WAMS	≤ 0.25

Variant	enrichment ratio
VEPE	≤ 0.25
MGLF	2.83
IYGY	≤ 0.25
MLDY	≤ 0.25
YCVS	≤ 0.25
MYTI	≤ 0.25
QAIW	≤ 0.25
VFVR	≤ 0.25
TGAL	15.9
GRLV	0.785
RRTH	≤ 0.25
GGQI	≤ 0.25
EYFI	≤ 0.25
RAMI	≤ 0.25
FRPK	≤ 0.25
FSLS	9.54
NHLL	≤ 0.25
FYRD	≤ 0.25
VASG	≤ 0.25
PTSF	≤ 0.25
WCGG	≤ 0.25
GELM	15.9
DFNP	≤ 0.25
NECQ	≤ 0.25

Variant	enrichment ratio
HEWA	≤ 0.25
GLKR	≤ 0.25
HSNC	≤ 0.25
ADNQ	≤ 0.25
SWLF	≤ 0.25
QRGS	≤ 0.25
KILV	≤ 0.25
MWVF	≤ 0.25
FFKA	0.521
NCRA	≤ 0.25
DRDG	≤ 0.25
KRDK	≤ 0.25
ENCI	≤ 0.25
RQPY	≤ 0.25
HREH	≤ 0.25
EYDE	≤ 0.25
EEII	≤ 0.25
SECW	9.58
QFWT	≤ 0.25
HEEE	≤ 0.25
DMNL	≤ 0.25
SWPH	≤ 0.25
FDSR	≤ 0.25
KHLN	≤ 0.25

Variant	enrichment ratio
MVDP	≤ 0.25
VFSQ	≤ 0.25
FGEM	≤ 0.25
QLNF	≤ 0.25
TWVS	≤ 0.25
SGDP	≤ 0.25
MAVT	≤ 0.25
FSCC	1.27
DSEL	≤ 0.25
PQNK	≤ 0.25
KMLL	≤ 0.25
NMFR	≤ 0.25
PGIG	≤ 0.25
TCTC	11.4
ILMS	≤ 0.25
GSYH	≤ 0.25
SKHP	≤ 0.25
HVFL	≤ 0.25
SDIF	≤ 0.25
ITPF	≤ 0.25
SHHN	≤ 0.25
SEGF	12.8
TTID	≤ 0.25
GYAN	≤ 0.25

Variant	enrichment ratio
GWII	≤ 0.25
EPHS	≤ 0.25
DIFF	≤ 0.25
ENAF	≤ 0.25
KMFN	≤ 0.25
VKYC	≤ 0.25
NHSI	≤ 0.25
EEPL	≤ 0.25
GAWF	≤ 0.25
IMSS	≤ 0.25
SHVQ	≤ 0.25
GQPM	≤ 0.25
DVHW	≤ 0.25
PEYS	≤ 0.25
ETLV	≤ 0.25
MNRQ	≤ 0.25
AMDE	≤ 0.25
RMMK	≤ 0.25
REQL	≤ 0.25
SCMI	27.9
SGYL	7.04
KTDE	≤ 0.25
IPHL	≤ 0.25
VQAA	≤ 0.25

Variant	enrichment ratio
MVPA	≤ 0.25
WQNR	≤ 0.25
IDVV	≤ 0.25
DAFH	≤ 0.25
YCSL	≤ 0.25
WPGI	≤ 0.25
AENP	≤ 0.25
WVVV	≤ 0.25
VFRP	≤ 0.25
PAMY	≤ 0.25
LCDT	≤ 0.25
NWCP	≤ 0.25
YIGD	0.38
LQAW	≤ 0.25
WIFR	≤ 0.25
RYQR	≤ 0.25
KYPH	≤ 0.25
IEKA	≤ 0.25
